Reference: article PMC10466050, “A comparative study of human and zebrafish glucocorticoid receptor activities of natural and pharmaceutical steroids” (Frontiers in Endocrinology, 2023)
Values belong to the compound of their own block, whether it stands above or below them.

What was measured:
hGR [1] = target: T1, hGR (Homo sapiens, UniProt P04150); test: Whole-cell ligand competition assay with [3H]-dexamethasone, HMLN-hGR cells; type: binding; set-up: expressed in transfected cells; details: HMLN-hGR whole cells, 1 nM [3H]-DEX as tracer, 3 h
T1 sequence (P04150 1-777): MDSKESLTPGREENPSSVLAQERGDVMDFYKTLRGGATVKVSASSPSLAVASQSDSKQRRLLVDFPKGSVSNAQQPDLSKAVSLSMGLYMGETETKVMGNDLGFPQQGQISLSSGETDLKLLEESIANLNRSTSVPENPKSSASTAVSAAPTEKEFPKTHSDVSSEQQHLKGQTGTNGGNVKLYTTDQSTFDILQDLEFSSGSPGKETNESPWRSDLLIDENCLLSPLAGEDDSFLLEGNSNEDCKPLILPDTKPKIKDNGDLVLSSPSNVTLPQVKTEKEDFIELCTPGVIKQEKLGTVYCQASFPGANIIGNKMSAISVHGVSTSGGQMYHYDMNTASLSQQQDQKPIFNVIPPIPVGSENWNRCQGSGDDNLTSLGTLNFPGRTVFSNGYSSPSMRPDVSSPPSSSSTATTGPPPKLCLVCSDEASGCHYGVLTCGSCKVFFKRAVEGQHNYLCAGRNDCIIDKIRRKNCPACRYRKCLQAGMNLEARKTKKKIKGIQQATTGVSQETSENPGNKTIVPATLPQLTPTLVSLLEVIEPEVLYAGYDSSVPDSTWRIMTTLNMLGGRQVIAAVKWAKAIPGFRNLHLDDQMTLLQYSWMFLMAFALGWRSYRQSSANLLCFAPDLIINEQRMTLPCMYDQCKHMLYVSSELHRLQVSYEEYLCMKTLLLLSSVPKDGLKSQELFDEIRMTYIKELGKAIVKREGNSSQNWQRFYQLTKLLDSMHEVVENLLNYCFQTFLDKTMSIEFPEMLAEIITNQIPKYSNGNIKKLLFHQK
Description: (§1) After 3 h, unbound material was aspirated, and cells were washed three times with cold PBS in order to remove additional unbound material. Then, 150 μl of lysis buffer (250 mM Tris phosphate pH 7.8, 0.1% triton X-100) was added and plates were shaked for 5 min. 50 μl of the total cell lysate was mixed with of 50 μl of LSC-cocktail (Emulsifier-Safe, Perkin Elmer) and [3H] bound radioactivity was liquid scintillation counted (MicroBeta trilux, Perkin Elmer). Protein concentration of 50 μl of the total cell lysate was measured by Bio-Rad protein assay and used to normalize bound radioactivity values expressed in dpm. Results were plotted as measured dpm versus concentration of tested compound. […] All the experiments were performed in quadruplicates and in at least three independent experiments.
(§2) For ligand binding assays, dose-response curves were also fitted using GraphPad Prism.

zfGR [2] = target: T2, zfGR (Danio rerio, UniProt Q1XHK0); test: Whole-cell ligand competition assay with [3H]-dexamethasone, UMLN-zfGR cells; type: binding, zebrafish
Description: as §1, §2

zfGR [3] = target: T2, zfGR; test: Antagonistic activity assessment in presence of 3 nM dexamethasone, UMLN-zfGR cells; type: cell-based, zebrafish
hGR [4] = target: T1, hGR; test: cell-based; details: IC50, HMLN-hGR cells, antagonistic activity, with 3 nM dexamethasone

Compound: CSCC(=O)C1C(C)CC2C3CCC4=CC(=O)C=CC4(C)C3(F)C(O)CC21C (centres unmarked) [RU24782]
IC50 (hGR [1]): 44.3 nM

Compound: C[C@]12CCC(=O)C=C1CC[C@@H]1[C@@H]2[C@@H](O)C[C@@]2(C)[C@H]1CC[C@]2(O)C(=O)CO [cortisol]
IC50 (zfGR [2]): 14.7 nM

% min act (minimal activity) (zfGR [3]; UMLN-zfGR, with 3 nM dexamethasone, % of maximal luciferase activity induced by 100 nM dexamethasone, at 10^-5M): 12 ± 4%
IC50 (zfGR [3]; read-out: IC50): 1510 nM
Compound: C[C@]12CCC(=O)C=C1[C@@H]1C[C@@H]1[C@H]1[C@@H]3[C@@H]4C[C@@H]4[C@@]4(CCC(=O)O4)[C@@]3(C)CC[C@@H]12 [drospirenone]

Compound: CC(=O)S[C@@H]1CC2=CC(=O)CC[C@]2(C)[C@H]2CC[C@@]3(C)[C@@H](CC[C@@]34CCC(=O)O4)[C@H]12 [spironolactone]
IC50 (hGR [4]): 5300 nM
